In all, about 310,000 compounds went through this assay and about 2,200 (0.71%) showed an effect of 50% or more. The effect is printed as a negative number. The list shows a part of the results.

human ether-à-go-go-related gene (hERG) potassium channel, sequence (Q12809 whole entry, looked up): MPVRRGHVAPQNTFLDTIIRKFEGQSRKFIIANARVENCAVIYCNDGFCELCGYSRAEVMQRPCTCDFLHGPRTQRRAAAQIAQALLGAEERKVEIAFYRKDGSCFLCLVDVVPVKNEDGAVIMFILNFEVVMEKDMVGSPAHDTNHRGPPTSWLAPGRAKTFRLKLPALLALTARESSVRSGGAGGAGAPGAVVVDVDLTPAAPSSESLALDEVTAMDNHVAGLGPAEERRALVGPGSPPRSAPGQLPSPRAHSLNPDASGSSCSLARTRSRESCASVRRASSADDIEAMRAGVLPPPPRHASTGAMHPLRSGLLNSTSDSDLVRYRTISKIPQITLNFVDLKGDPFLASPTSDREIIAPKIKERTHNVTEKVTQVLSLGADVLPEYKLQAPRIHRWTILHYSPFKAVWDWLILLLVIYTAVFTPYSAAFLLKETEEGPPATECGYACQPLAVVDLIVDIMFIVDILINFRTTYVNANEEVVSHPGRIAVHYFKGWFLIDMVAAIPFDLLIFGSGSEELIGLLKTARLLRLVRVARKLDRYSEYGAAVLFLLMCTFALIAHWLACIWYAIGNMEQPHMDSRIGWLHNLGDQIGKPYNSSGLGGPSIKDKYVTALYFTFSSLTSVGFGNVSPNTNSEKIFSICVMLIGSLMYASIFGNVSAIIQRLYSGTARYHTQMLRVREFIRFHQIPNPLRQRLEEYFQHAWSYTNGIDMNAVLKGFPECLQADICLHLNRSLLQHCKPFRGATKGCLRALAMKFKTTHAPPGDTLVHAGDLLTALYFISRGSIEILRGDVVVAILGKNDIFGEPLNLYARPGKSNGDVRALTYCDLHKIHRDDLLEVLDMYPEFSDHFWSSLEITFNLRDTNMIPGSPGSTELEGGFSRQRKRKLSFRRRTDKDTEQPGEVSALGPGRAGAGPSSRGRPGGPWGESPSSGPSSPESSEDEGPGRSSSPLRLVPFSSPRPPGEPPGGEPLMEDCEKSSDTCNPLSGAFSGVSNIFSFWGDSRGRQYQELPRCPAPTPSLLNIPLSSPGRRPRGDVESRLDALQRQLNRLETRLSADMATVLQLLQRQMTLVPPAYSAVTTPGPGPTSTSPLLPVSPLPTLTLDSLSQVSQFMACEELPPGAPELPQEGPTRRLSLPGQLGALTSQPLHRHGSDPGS

The assay concerns the target human ether-à-go-go-related gene (hERG) potassium channel (human, UniProt Q12809). The experiment in a line: primary screen, population patch clamp on CHO cells stably expressing hERG.
With `O=C(NCCCN1CCOCC1)C(=O)NCc1ccco1`, the “hERG current change (%, negative = inhibition) at 1uM” value stood at 3.89%. As to `CN(Cc1ccc(F)cc1)C(=O)c1cccc(OC2CCN(C3CCCC3)CC2)c1`, the “hERG current change (%, negative = inhibition) at 1uM” value is reported as -29%. On to `O=C(Nc1ccccc1)c1ccncc1`, for which the “hERG current change (%, negative = inhibition) at 1uM” value is 8.93%. The result for `Cc1nc(SCC(=O)c2c[nH]c3ccccc23)n[nH]1` reads 12.7%; that for `CCc1nnc(NC(=O)c2cc(C)nc3ccccc23)s1`, 10.6%; that for `CC(=O)Oc1ccc(/C=C(\NC(=O)c2ccco2)C(=O)NCc2ccccc2)cc1`, -58.9%. The result for `Cn1ncc([N+](=O)[O-])c1C(=O)Nc1ccccc1Cl` reads 15%. Next, `Cc1ccc(NC(=O)CN(C)S(=O)(=O)c2ccc3c(c2)n(C)c(=O)c(=O)n3C)c(C)c1`: 12.7%.

In the case of `Clc1ccccc1/C=C/c1nc(-c2ccccn2)no1`, the “hERG current change (%, negative = inhibition) at 1uM” value is on record as 13.1%.

As for `CC(CN1CCCC1)OC(=O)c1ccc(Cl)cc1.Cl` (stereo not drawn), the “hERG current change (%, negative = inhibition) at 1uM” value amounted to 11.7%. `COc1ccc(CCNC(=O)C2CCN(C(=O)c3ccccc3)CC2)cc1`: the “hERG current change (%, negative = inhibition) at 1uM” value is 12.3%. Next, `COC(C(=O)Nc1ccc(S(=O)(=O)Nc2c(C)cccc2C)cc1)c1ccccc1` (stereo not drawn): -69.6%. The result for `CC(=O)c1cccc(NS(=O)(=O)c2ccc(N/C=C\C(=O)c3ccc(F)cc3)cc2)c1` reads 13.6%; that for `COc1ccccc1NC(=O)CCN1C(=O)C2CC=CCC2C1=O` (stereo not drawn), 12.3%; that for `CC(C)c1ccc(NC(=O)C2=NNC(=O)CC2)cc1`, 7.39%. The result for `CCCCn1c(O)c(C(C)=NC(C)c2ccccc2)c(=O)[nH]c1=O` (stereo not drawn) reads -0.344%.

As for `O=C(NCCc1ccccc1)C1CCN(c2ncccn2)CC1`, the “hERG current change (%, negative = inhibition) at 1uM” value is listed as 5.09%. Next, `COc1cccc(CNC(=O)c2ccc(C3SCCS3)cc2)c1`: -10.1%; `CC(C)C[C@H](NC(=O)Nc1ccc2c(c1)OCCO2)C(=O)O`: 10.5%. Next, `O=[N+]([O-])c1c(N2CCN(CCO)CC2)nc2ccccn12`: 10.3%; `CC(=O)c1ccc(NC(=O)CN2CCCCCC2)cc1`: 16.6%. In the case of `Cc1cccc(N2N=C(C(=O)Nc3ccc(Cl)c(S(=O)(=O)N4CCOCC4)c3)CCC2=O)c1`, the “hERG current change (%, negative = inhibition) at 1uM” value was -3.81%.

Take `COCCCn1c(SCc2cccc(OC)c2)nc2cc(OC)c(OC)cc2c1=N`: the “hERG current change (%, negative = inhibition) at 1uM” value is 3.02%. Next, `COC(=O)CN1C(=S)N(c2ccc(Cl)cc2)C(=O)C1CC(=O)Nc1ccccc1` (stereo not drawn): 1.84%; `CN(C(=O)COC(=O)CCCN1C(=O)c2cccc3cccc(c23)C1=O)C1CCS(=O)(=O)C1` (stereo not drawn): 8.53%; `Clc1ccc2ccc3cccnc3c2n1`: 12.8%. The result for `CCOC(=O)C1CCN(C(=O)CCS(=O)(=O)c2ccc3c(c2)CC(C)N3C(=O)CC)CC1` (stereo not drawn) reads 12.5%; that for `Cc1c(C(=O)NCc2cccnc2)oc2ccc(S(=O)(=O)N3CCCCCC3)cc12`, -2.1%. With `O=C(O)c1cccc(-n2sc3ccccc3c2=O)c1`, the “hERG current change (%, negative = inhibition) at 1uM” value was found to be 13.3%. Next, `COc1ccc(CCNC(=O)CSc2nc(O)c(CCC(C)C)c(=O)[nH]2)cc1OC`: 6.07%; `COCc1c(C(=O)OCc2nc3ccsc3c(=O)[nH]2)oc2ccccc12`: 2.36%. As for `COc1cc(OC)cc(C(=O)NCc2ccc3c(c2)cc(C)n3C)c1`, the “hERG current change (%, negative = inhibition) at 1uM” value is recorded as 13%. For `C=CCn1c(-c2ccccc2OCC)n[nH]c1=S`, the “hERG current change (%, negative = inhibition) at 1uM” value was found to be 0.355%. Turning to `COc1ccc(S(=O)(=O)N2CCCC(C(=O)NCc3ccco3)C2)cc1Cl` (stereo not drawn), the “hERG current change (%, negative = inhibition) at 1uM” value is recorded as -3.23%. The result for `COc1ccc(OC)c(N(CC(=O)NCc2ccccn2)S(C)(=O)=O)c1` reads 11.2%; that for `CC(=O)c1cc(CCC(=O)NC2CCCCCC2)oc1C`, 3.52%; that for `COCc1nnc(NC(=O)CCN2C(=O)c3ccccc3C2=O)s1`, -1.59%. Regarding `O=C(O)c1ccc2c(c1Nc1ccccc1)C(=O)c1ccccc1C2=O`, the “hERG current change (%, negative = inhibition) at 1uM” value is given as 11.8%.

Turning to `CC(C#Cc1ccc2c(c1)COc1c3ccccc3nn1-2)OC(C)(C)C` (stereo not drawn), the “hERG current change (%, negative = inhibition) at 1uM” value is 16.4%. As to `O=C(NNC(=O)c1ccc(Cl)cc1Cl)c1cnccn1`, the “hERG current change (%, negative = inhibition) at 1uM” value turned out to be 0.624%.

Consider `CC1CCN(c2[nH]c(=S)c(C#N)c3c2CCCC3)CC1`, for which the “hERG current change (%, negative = inhibition) at 1uM” value is given as 8.22%.

On to `COc1ccccc1C(=O)NCCOc1ccc(C)c(C)c1`, for which the “hERG current change (%, negative = inhibition) at 1uM” value turned out to be 15.7%. Regarding `COc1ccc(-n2cc(CNCCc3ncc(C)[nH]3)c(-c3ccccc3Cl)n2)cc1`, the “hERG current change (%, negative = inhibition) at 1uM” value is given as -9.71%.

For `Cl.OC(COCc1ccc(Cl)cc1)CN1CCc2ccccc2C1` (stereo not drawn), the “hERG current change (%, negative = inhibition) at 1uM” value is recorded as -27.3%. Next, `Cc1ccc(SC(C)C(=O)NC(N)=O)c(C)c1` (stereo not drawn): 16.5%.
